Assay results as given in publication PMC4336329 (PLoS ONE, 2015).
About 14,000 (4.5%) of roughly 310,000 compounds showed an effect of 50% or more. Effects have a minus sign here. Some of the results follow.

biological target: human ether-à-go-go-related gene (hERG) potassium channel (human, UniProt Q12809); assay: primary screen, population patch clamp on CHO cells stably expressing hERG
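Further: peak tail current of the secondary pulse compared with the same well before compound.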

Sequence of human ether-à-go-go-related gene (hERG) potassium channel (Q12809 whole entry, looked up): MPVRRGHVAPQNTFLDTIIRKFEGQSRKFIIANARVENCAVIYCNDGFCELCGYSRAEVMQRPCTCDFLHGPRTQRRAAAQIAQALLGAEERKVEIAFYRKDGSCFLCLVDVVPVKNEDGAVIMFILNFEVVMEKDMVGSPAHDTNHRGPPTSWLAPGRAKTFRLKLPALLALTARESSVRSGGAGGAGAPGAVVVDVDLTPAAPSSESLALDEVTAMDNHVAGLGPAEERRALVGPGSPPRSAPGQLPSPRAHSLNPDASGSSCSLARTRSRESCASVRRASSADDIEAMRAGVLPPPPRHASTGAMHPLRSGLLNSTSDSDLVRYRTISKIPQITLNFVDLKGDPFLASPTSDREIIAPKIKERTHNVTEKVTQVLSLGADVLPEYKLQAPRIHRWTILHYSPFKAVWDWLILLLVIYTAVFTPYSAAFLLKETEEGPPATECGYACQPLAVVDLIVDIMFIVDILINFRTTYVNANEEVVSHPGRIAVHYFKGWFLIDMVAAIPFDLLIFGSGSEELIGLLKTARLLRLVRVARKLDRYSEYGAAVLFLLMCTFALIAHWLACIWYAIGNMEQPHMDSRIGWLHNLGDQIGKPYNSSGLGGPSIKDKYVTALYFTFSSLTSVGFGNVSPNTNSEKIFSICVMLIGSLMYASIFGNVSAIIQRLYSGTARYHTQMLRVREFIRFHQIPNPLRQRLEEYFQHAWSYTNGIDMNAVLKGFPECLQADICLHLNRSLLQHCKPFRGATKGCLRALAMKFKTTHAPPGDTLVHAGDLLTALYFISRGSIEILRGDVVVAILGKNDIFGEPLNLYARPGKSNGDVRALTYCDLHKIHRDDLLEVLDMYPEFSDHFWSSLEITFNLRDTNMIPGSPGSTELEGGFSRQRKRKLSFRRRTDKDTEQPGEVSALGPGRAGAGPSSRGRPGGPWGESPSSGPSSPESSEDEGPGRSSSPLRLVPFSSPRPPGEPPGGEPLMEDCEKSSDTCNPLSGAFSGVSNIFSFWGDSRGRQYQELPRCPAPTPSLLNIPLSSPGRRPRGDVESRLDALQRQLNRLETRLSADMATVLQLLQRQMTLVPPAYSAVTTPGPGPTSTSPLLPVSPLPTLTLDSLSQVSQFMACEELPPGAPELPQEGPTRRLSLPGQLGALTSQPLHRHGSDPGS

Compared with `Cc1cc(C)c(S(=O)(=O)NCC(c2ccc3c(c2)OCO3)N2CCOCC2)c(C)c1` (stereo not drawn), `Cc1cc(C)c2[nH]c(=O)c(CN(CC3CCCO3)S(=O)(=O)c3ccc4c(c3)OCCO4)cc2c1` (stereo not drawn) is higher in “hERG current change (%, negative = inhibition) at 10uM” value: -18.1% for the first, 3.84% for the second.

Going from `CN(C)CCOC(=O)C(c1ccccc1)C1(O)CCCC1.Cl` (stereo not drawn) to `CN(C)c1ccc(N=Nc2ccccc2C(=O)OCC(=O)NC2CCCC2)cc1`, the “hERG current change (%, negative = inhibition) at 10uM” value falls from 21.8% to 0.517%.

Going from `CCC(=O)Nc1ccc(C(=O)Nc2cccnc2)cc1` to `O=C(Nc1ccc2ccccc2c1)c1cccnc1`, the “hERG current change (%, negative = inhibition) at 10uM” value falls from -0.52% to -12%.

Compared with `CC(=O)NCCn1c(SCC(=O)NC2CCCCC2)nc2ccccc2c1=O`, `Cc1ccc2nc3c(cc(C(=O)NC4CCCCC4)c(=N)n3C3CCCCC3)c(=O)n2c1` is lower in “hERG current change (%, negative = inhibition) at 10uM” value: -8.51% for the first, -74.7% for the second.

Going from `CC1CCN(C(=O)CNC(=O)c2cccc(OC(F)F)c2)CC1` to `CCC(=O)N1CCN(c2ccccc2NC(=O)c2ccc(OC)c(Cl)c2)CC1`, the “hERG current change (%, negative = inhibition) at 10uM” value falls from 6.21% to -11.6%.

Compared with `O=C(CCCN1C(=O)c2ccccc2C1=O)Nc1ccccc1`, `O=C(Nc1ccccc1)c1ccc(-c2ccc([N+](=O)[O-])cc2)o1` is higher in “hERG current change (%, negative = inhibition) at 10uM” value: -10.5% for the first, 4.73% for the second.

First: C#Cc1ccc([C@H]2C=C(C(=O)O)O[C@@H](OCc3ccc(CO)cc3)C2)cc1
Second: O=C(O)c1cc(O)ccc1-c1ccc(O)cc1
The “hERG current change (%, negative = inhibition) at 10uM” value of the first is lower: 9.26% for the first, 12.3% for the second.

First: CCOC(=O)C1=C(C)OC(N)=C(C#N)C1c1ccc(OC)c(C)c1OC (stereo not drawn)
Second: CCOC(=O)N1CCC2(CC1)C(C#N)=C(N)Oc1c2c(C)nn1-c1cccc(Cl)c1
The “hERG current change (%, negative = inhibition) at 10uM” value of the first is lower: -5.65% for the first, -1.45% for the second.

Compared with `CCC(=O)N1N=C(c2ccc(C)cc2)CC1c1ccco1` (stereo not drawn), `Cc1ccc(C(=O)NCCCNC(=O)c2ccco2)cc1` is higher in “hERG current change (%, negative = inhibition) at 10uM” value: -8.61% for the first, 7.23% for the second.

Going from `CCC(C)NC(=O)c1ccc(C(=O)c2ccccc2)cc1` (stereo not drawn) to `O=C(CNC(=O)c1ccccc1Cl)c1ccccc1`, the “hERG current change (%, negative = inhibition) at 10uM” value rises from 12.7% to 21.6%.

Going from `O=C(NCCc1ccccc1)C(=Cc1ccc(C(=O)O)cc1)C(=O)NCCc1ccccc1` to `O=C(COC(=O)CC(c1ccccc1)c1ccccc1)NCc1ccc(Cl)cc1`, the “hERG current change (%, negative = inhibition) at 10uM” value falls from -1.94% to -7.81%.

First: Cc1cccc2cc(CN(CCN3CCCC3)C(=O)NC3CCCCC3)c(=O)[nH]c12
Second: O=C(c1c[nH]c2ccccc2c1=O)N1CCCCCC1
The “hERG current change (%, negative = inhibition) at 10uM” value of the first is lower: -57% for the first, 11.6% for the second.

Going from `COc1cccc2[nH]c3c(N4CCN(Cc5ccc6c(c5)OCO6)CC4)ncnc3c12` to `COc1ccc(C(=O)N2CCN(c3nc4cc(C)ccc4cc3C#N)CC2)c(OC)c1`, the “hERG current change (%, negative = inhibition) at 10uM” value falls from -17.3% to -22.8%.

First: CCOc1ccc(NC(=O)Nc2ccccc2C(N)=O)cc1
Second: O=C(O)c1ccccc1NC(=O)c1ccccc1Nc1ccccc1
The “hERG current change (%, negative = inhibition) at 10uM” value of the first is lower: -2.51% for the first, 22% for the second.

First: O=C1C=C(NCc2ccccc2)CCC1
Second: c1ccc(COc2ccc3nocc3c2)cc1
The “hERG current change (%, negative = inhibition) at 10uM” value of the first is higher: 12.1% for the first, -2.43% for the second.

Going from `CCCCNC(=O)c1onc(CSc2cccc(F)c2)c1C(=O)O` to `CSc1ccc(/C=C(/NC(=O)c2ccccc2)C(=O)NCCCn2ccnc2)cc1`, the “hERG current change (%, negative = inhibition) at 10uM” value falls from 10.9% to -60.8%.

First: O=C1CSC(c2cccc([N+](=O)[O-])c2)N1c1ccc(O)cc1 (stereo not drawn)
Second: COc1ccc(N2C(=O)CSC2c2cccc(F)c2)cc1 (stereo not drawn)
The “hERG current change (%, negative = inhibition) at 10uM” value of the first is lower: 0.0802% for the first, 15.3% for the second.

Going from `COCc1[nH][nH]c(=O)c1C=Nc1ccc(Cl)cc1` to `Cc1ccsc1/C=N/NC(=O)CNC(=O)c1cccc([N+](=O)[O-])c1C`, the “hERG current change (%, negative = inhibition) at 10uM” value rises from 3.16% to 22.5%.

Going from `Cc1cc(Nc2ccccc2Cl)n2nnnc2n1` to `FC(F)(F)c1nc(-c2cccnc2)ncc1-c1nnnn1-c1ccccc1`, the “hERG current change (%, negative = inhibition) at 10uM” value rises from 0.169% to 8.46%.

First: COc1ccc(C2c3ccc(O)cc3Oc3ncn(Cc4ccco4)c(=N)c32)cc1OC (stereo not drawn)
Second: COCC1CCN(C(=O)c2cc(COc3ccc(OC)c4ccccc34)on2)C1 (stereo not drawn)
The “hERG current change (%, negative = inhibition) at 10uM” value of the first is lower: -74.4% for the first, -18.6% for the second.

First: CCOC(=O)C1CCCN(C(=O)c2[nH]c3ccc(OC)cc3c2C)C1 (stereo not drawn)
Second: CCOC(=O)c1ccc2ncc(C(=O)OCC)c(Nc3ccc(N4CCOCC4)cc3)c2c1
The “hERG current change (%, negative = inhibition) at 10uM” value of the first is higher: 15.8% for the first, -13.4% for the second.

Going from `COCCNc1nc2nonc2nc1N(C)Cc1cccc2cnccc12` to `CCn1ccnc1CN(C)Cc1cn[nH]c1-c1ccc(OC)c(F)c1`, the “hERG current change (%, negative = inhibition) at 10uM” value rises from -16.9% to -13.9%.

Compared with `O=C(Nc1nccs1)c1ccc[nH]c1=O`, `Cn1cc(C(=O)N/N=C/c2cccs2)c2ccccc21` is lower in “hERG current change (%, negative = inhibition) at 10uM” value: 13% for the first, -28.8% for the second.

Compared with `COc1cccc(CN2CC=C(c3ccc(F)cc3)CC2)c1`, `O=C(NCC1CCCN(Cc2cccc(OCCO)c2)C1)c1ccc(F)cc1` (stereo not drawn) is higher in “hERG current change (%, negative = inhibition) at 10uM” value: -26.5% for the first, -16.3% for the second.

Compared with `Cc1ccc(SCC(=O)Nc2nncs2)cc1`, `Cn1cnnc1SCc1ccc(C(=O)N/N=C/c2cccs2)cc1` is lower in “hERG current change (%, negative = inhibition) at 10uM” value: 11.7% for the first, 4.87% for the second.

Going from `O=C(CN(C(=O)CCC(=O)Nc1nccs1)c1ccc(F)cc1)NCc1ccc2c(c1)OCO2` to `COc1ccc(NC(=O)CCNC(=O)C2CCN(S(=O)(=O)c3ccc(F)cc3)CC2)cc1OC`, the “hERG current change (%, negative = inhibition) at 10uM” value rises from 9.18% to 9.22%.

Compared with `CCC(=O)N(CC(=O)Nc1sc(C)c(C)c1C(N)=O)C1CCCCC1`, `CCOC(=O)CN1NC2(CCCCC2)NC1=S` is higher in “hERG current change (%, negative = inhibition) at 10uM” value: 4.91% for the first, 26.6% for the second.

Compared with `Cn1c(O)c(C=NC2C(=O)C3(C)CCC2C3(C)C)c(=O)n(C)c1=O` (stereo not drawn), `CC1CCCN(CCCNC(=O)c2nn(C)c3c2CSc2ccccc2-3)C1` (stereo not drawn) is lower in “hERG current change (%, negative = inhibition) at 10uM” value: -0.548% for the first, -72.5% for the second.

Going from `Cc1cccc2c(C(=O)N3CCN(c4ccccc4)CC3)cc(-c3ccncc3)nc12` to `CC(=O)NCc1ccc(C(=O)CSc2nnc(-c3ccncc3)n2Cc2ccccc2)o1`, the “hERG current change (%, negative = inhibition) at 10uM” value rises from -15.9% to 1.6%.

Compared with `C=CCN(c1ccc(C(=O)NCCN2CCOCC2)cc1)S(C)(=O)=O`, `CCOc1cc(C(=O)NN2CCOCC2)cc(OCC)c1OCC` is higher in “hERG current change (%, negative = inhibition) at 10uM” value: -17.9% for the first, 35.2% for the second.

Compared with `O=C(O)CCSc1nc2ccc(Br)cc2[nH]1`, `CSc1ncc(Cl)c(C(=O)Nc2ccc(C)c(C)c2)n1` is higher in “hERG current change (%, negative = inhibition) at 10uM” value: 8.75% for the first, 13.4% for the second.

First: C=CCn1c(SCC(=O)Nc2cccc3ccccc23)nc(O)c(CC)c1=O
Second: O=C(CSc1ncnc2c1oc1ccccc12)NCc1ccco1
The “hERG current change (%, negative = inhibition) at 10uM” value of the first is higher: 3.7% for the first, -12.4% for the second.

Going from `Cc1ccc(Nc2nc(CSc3nnc(-c4cccnc4)n3-c3ccccc3C)cs2)cc1` to `Cc1nn(-c2ccc([N+](=O)[O-])cc2)c(N)c1-c1ccccc1`, the “hERG current change (%, negative = inhibition) at 10uM” value rises from -36.4% to -19.1%.

First: CCN(Cc1ccccc1)C(=O)COC(=O)Cn1cnc2ccccc21
Second: COc1ccc(CCNCC(O)c2ccccc2)cc1.O=C(O)C(=O)O (stereo not drawn)
The “hERG current change (%, negative = inhibition) at 10uM” value of the first is higher: 18% for the first, -11.4% for the second.

Going from `Cc1cccc(CN2CCN(CC(=O)N3CCC4(CC3)OCCO4)C2=O)c1` to `O=C(NC(Cc1ccccc1)C(=O)N1CCC2(CC1)OCCO2)C1CCCCC1` (stereo not drawn), the “hERG current change (%, negative = inhibition) at 10uM” value falls from 21.1% to -2.45%.

First: CNS(=O)(=O)c1c(C)cc(C)c(N(C)S(=O)(=O)c2ccccc2)c1C
Second: CN(Cc1ccccc1)S(=O)(=O)c1ccc(S(=O)(=O)N(Cc2ccc(F)cc2)C2CCCC2)cc1
The “hERG current change (%, negative = inhibition) at 10uM” value of the first is higher: 2.72% for the first, -8.16% for the second.

Compared with `O=C(Nc1nc2ccc(S(=O)(=O)N3CCCC3)cc2s1)C1CCCO1` (stereo not drawn), `CC1Cc2cc(S(=O)(=O)N3CCN(c4ccccc4)CC3)ccc2N1C(=O)C1CC1` (stereo not drawn) is higher in “hERG current change (%, negative = inhibition) at 10uM” value: -1.91% for the first, 20.4% for the second.

Compared with `COc1ccccc1-n1c(C)nc2cc(C(=O)NCC3CCCO3)ccc21` (stereo not drawn), `COc1ccc(C(O)P(=O)(OC2CCCCC2)c2ccc(N(C)C)cc2)cc1OC` (stereo not drawn) is higher in “hERG current change (%, negative = inhibition) at 10uM” value: -23.6% for the first, -7.44% for the second.

First: CCSc1nnc(NC(=O)c2nc3nc(C)cc(C)n3n2)s1
Second: C/C(N)=C(/C#N)C(=O)CSc1nc2scc(-c3ccc(F)cc3)c2c(=O)n1C
The “hERG current change (%, negative = inhibition) at 10uM” value of the first is higher: 13.1% for the first, -0.806% for the second.

Going from `Cc1cc(=O)oc2cc(OCC(=O)NCCc3c[nH]c4ccc(F)cc34)ccc12` to `CCN(CC)c1ccc2cc(-c3nc(-c4ccc(OC)cc4)cs3)c(=O)oc2c1`, the “hERG current change (%, negative = inhibition) at 10uM” value falls from 21.4% to 3.63%.

Going from `CC1(c2cccc(Br)c2)NC(=O)N(CC(=O)Nc2cccnc2Cl)C1=O` (stereo not drawn) to `CCN=C1S/C(=C\c2cn(CC(=O)NCCOC)c3ccccc23)C(=O)N1CC`, the “hERG current change (%, negative = inhibition) at 10uM” value falls from 14.6% to -0.703%.

Going from `Oc1ccc(C[C@H]2CNCCN2CC2(c3ccccc3)CC2)cc1` to `COc1ccc(C2CC(C)(c3ccc(OC)cc3)Nc3ccccc3N2)cc1` (stereo not drawn), the “hERG current change (%, negative = inhibition) at 10uM” value rises from -33.5% to 3.39%.

Compared with `O=C(NCc1ccncc1)C1CCCN(S(=O)(=O)c2ccc(Br)cc2)C1` (stereo not drawn), `CC(C)(C)C1CCC(C(=O)NCCc2ccc(S(N)(=O)=O)cc2)CC1` (stereo not drawn) is higher in “hERG current change (%, negative = inhibition) at 10uM” value: -77.5% for the first, 15.4% for the second.

For `Cc1sc2ncn(CC(=O)N3CCN(c4ccccn4)CC3)c(=O)c2c1S(=O)(=O)N1CCC(C)CC1`, the “hERG current change (%, negative = inhibition) at 10uM” value was -8.84%.
